Here are results for 47 compounds from PubChem BioAssay AID1508642 (National Center for Advancing Translational Sciences (NCATS), 2021).

About 200 (0.47%) of roughly 43,000 compounds were called active. Not shown: some 12% with an inconclusive outcome. Calls follow the shape of the dose curve; as a rule, active = well fitted cell-killing curve with a large enough effect; inconclusive = small, poorly fitted or top-dose-only effect, or effect the other way; inactive = flat fitted curve, though single readings scatter. The list shows a part of the results.
% is scaled to controls: 0 for no effect and ±100 for the full control effect.

This assay can be described thus: Cell viability qHTS assay in S16 Pmp22-F2sN cells. Also: nearly all actives have a fitted effect of over 65% in size. The following applies: S16 Pmp22-F2sN Schwann cells viability, CellTiter-Glo, 24 h; series mostly up to 57.5 µM; activity change, negative = cytotoxicity: at the top concentration. The gist of the method:
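Viability was measured by CellTiter-Glo luminescence (15 min, room temperature). This followed 24 h at 37 °C of compound exposure (23 nL pin transfer) in S16 Pmp22-F2sN Schwann cells, 500-1,000 per well.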
On the technique in general: Quantitative high-throughput screening tests each substance at several concentrations.
As for `Cc1cccc(N2CCN(c3ccc(C(=O)O)cc3NC(=O)c3cccc(Cl)c3)CC2C)c1` (configuration not stated), the “activity change, negative = cytotoxicity” value was inactive: -28.6%. With `CCc1ccc(-c2nc(SCC(=O)NCC3CCCO3)c(-c3ccc(C)cc3)[nH]2)cc1` (configuration not stated) the figure was inactive: 5.54%; with `Cc1cccc(C)c1NC(=O)Cn1c(=O)n(CCCS(=O)(=O)C2CCCCC2)c(=O)c2ccccc21`, inactive: 0.375%.

As to `Cc1ccc(-n2c(=O)c3ccc(C(=O)NCc4ccco4)cc3n(CC(=O)Nc3ccccc3C(F)(F)F)c2=O)cc1`, the “activity change, negative = cytotoxicity” value is inactive: 10.1%.

As to `CN(C(=O)Cn1cnc2onc(-c3ccc(F)cc3)c2c1=O)c1ccccc1Cl`, the “activity change, negative = cytotoxicity” value was inactive: 6.27%. For `Cc1cc(C)cc(-n2c(C)cc(C(=O)C(=O)Nc3nnc(C)s3)c2C)c1`, the “activity change, negative = cytotoxicity” value is inactive: -11.1%. Take `CCOC(=O)c1cc2c(=O)n3ccccc3nc2n(Cc2ccco2)c1=NC(=O)c1ccc(C)c(C)c1`: the “activity change, negative = cytotoxicity” value was inactive: -3.22%.

On to `CN(c1ccccc1)S(=O)(=O)c1nnc(NC(=O)COc2ccccc2)s1`, for which the “activity change, negative = cytotoxicity” value was inactive: -16.8%. With `O=C(Cn1c(=O)oc2cc(S(=O)(=O)N3CCCCCC3)ccc21)Nc1ccc(F)cc1F` the figure was inactive: 10.3%; with `O=C(Nc1cc2c(cc1C(=O)c1cccc(Br)c1)OCCO2)c1ccccc1F`, inactive: 7.19%. In the case of `COc1ccccc1NC(=O)CSc1nc(-c2ccc(C)cc2)nc2c1Cc1c(CO)cnc(C)c1O2`, the “activity change, negative = cytotoxicity” value is inactive: -2.78%. For the compound `Cc1nn2c(=O)cc(COC(=O)c3ccc(NC(=O)c4cccc(Br)c4)cc3)nc2s1`, the “activity change, negative = cytotoxicity” value was inactive: -1.84%.

As to `CCOC(=O)c1c(S(=O)(=O)NCC(=O)N2CCN(c3cc(C)ccc3C)CC2)c(C)n(C)c1C`, the “activity change, negative = cytotoxicity” value is inactive: -4.51%. For the compound `Cc1cccc(NC(=O)CCN2CCN(c3ccccc3F)CC2)c1`, the “activity change, negative = cytotoxicity” value is inactive: 1.1%.

For the compound `COC(=O)c1ccccc1NC(=O)Cn1c(=O)n(CCC(=O)NCc2ccccc2OC)c(=O)c2ccccc21`, the “activity change, negative = cytotoxicity” value is inactive: 23.6%. Take `Cc1ccc(Cl)cc1NC(=O)CN1C(=O)CSc2ccc(S(=O)(=O)N3CCCC3)cc21`: the “activity change, negative = cytotoxicity” value is inactive: 0.344%. As to `CC(C)c1ccc(CNc2nc(-c3ccco3)nn2C(=O)c2ccc([N+](=O)[O-])cc2)cc1`, the “activity change, negative = cytotoxicity” value is inactive: 2.75%. On to `CSCCC(NS(=O)(=O)c1ccc2c(c1)oc(=O)n2C)C(=O)Nc1ccc(Cl)cc1` (configuration not stated), for which the “activity change, negative = cytotoxicity” value was inactive: 1.59%. With `COCc1cc(C)nc2sc3c(c12)NC(c1ccc(O)c(OC)c1)N(c1ccccc1)C3=O` (configuration not stated) the figure was inactive: -0.786%. With `COc1ccc(OCC(=O)N(Cc2cccs2)c2ccc(OC)cc2)cc1` the figure was inactive: 0.919%. With `C=Cc1ccc(Cn2c(=O)cc(C)c3c(C)nn(-c4ccccc4)c32)cc1` the figure was inactive: 1.4%; with `O=C(NC1(C(F)(F)F)C(=O)Nc2c1c(=O)[nH]c(=O)n2-c1ccccc1)c1ccccc1Cl` (configuration not stated), inactive: 0.521%. Regarding `COc1cc(OC)cc(-c2cc3nc(C)c(CCC(=O)Nc4ccc(C(C)=O)cc4)c(C)n3n2)c1`, the “activity change, negative = cytotoxicity” value is inactive: 2.63%. Turning to `CCOCCCNc1nc2ccccc2n2c(CC)nnc12`, the “activity change, negative = cytotoxicity” value is inactive: -8.43%. With `CCn1c(C)c(C)c2cc(C(=O)NCc3ccc(OC(C)C)cc3)ccc21` the figure was inactive: -9.03%.

Regarding `COc1cc2c(C(=O)N3CCN(c4cccc(C(F)(F)F)c4)CC3)cn(CC(C)C)c(=O)c2cc1OC`, the “activity change, negative = cytotoxicity” value was inactive: -26.9%. With `COc1ccc(NC(=O)Cn2c(=O)n(Cc3ccc4c(c3)OCO4)c(=O)c3ccc(C(=O)NC4CCCCC4)cc32)cc1` the figure was inactive: 3.38%; with `Cc1c(Cl)cccc1NC(=O)CSc1nc2ncccc2o1`, inactive: -3.11%. With `CC1Cn2c(C(=O)NCc3cccc(Br)c3)cc3cccc(c32)S1` (configuration not stated) the figure was inactive: -1.17%; with `Cc1ccc(C(=O)O)cc1NC1(c2ccccc2)C(=O)c2ccccc2C1=O`, inactive: -10.4%.

As for `Cc1cccc(-c2nc3c(cnn3-c3ccccc3)c(=O)n2-c2ccc(Br)cc2)c1`, the “activity change, negative = cytotoxicity” value was inactive: -5.96%. Take `COc1ccc2oc(-c3ccc(C)c(NC(=O)c4ccc(-c5ccccc5[N+](=O)[O-])o4)c3)nc2c1`: the “activity change, negative = cytotoxicity” value was inactive: 0.0831%. As for `O=C(CCSCc1cccc(Cl)c1)NCc1ccc(F)cc1Cl`, the “activity change, negative = cytotoxicity” value was inactive: 1.19%.

For the compound `CCc1ccccc1NC(=O)c1sc2nc(C)cc(COC)c2c1N`, the “activity change, negative = cytotoxicity” value is inactive: -7.63%. In the case of `Cc1ccc2[nH]c(CSc3nnc(NC(=O)c4ccccc4F)s3)cc(=O)c2c1`, the “activity change, negative = cytotoxicity” value was inactive: -19.3%.

Consider `COc1ccccc1CNC(=O)C1CCCN(c2nnc(C)c3c(C)n(-c4ccccc4)nc23)C1` (configuration not stated), for which the “activity change, negative = cytotoxicity” value is inactive: 0.422%. Consider `Cc1nn(CC(=O)N2CCN(c3cccc(C(F)(F)F)c3)CC2)c(=O)c2cc3sccc3n12`, for which the “activity change, negative = cytotoxicity” value was inactive: 4.16%. With `Cc1ccc(S(=O)(=O)c2[nH]c(-c3ccccc3)nc2SCCC(=O)O)cc1` the figure was inactive: -0.921%; with `Cc1cccc(CCNC(=O)c2ccc(CSCc3cccc(Cl)c3)o2)c1`, inactive: -3.17%; with `Cc1cccc(N(Cc2cc3ccccc3[nH]c2=O)C(=O)c2cccc(Cl)c2)c1`, inactive: 3.41%. Take `CCCn1c(=N)n(CC(O)COc2ccccc2OC)c2ccccc21` (configuration not stated): the “activity change, negative = cytotoxicity” value is inactive: -9.74%.

Turning to `Cc1ccc(N2CC(NC(=O)CCc3ccccc3)CC2=O)cc1C` (configuration not stated), the “activity change, negative = cytotoxicity” value is inactive: 5.39%.

Regarding `CCn1ccc2c(OCC(=O)NCc3ccccc3)cccc2c1=O`, the “activity change, negative = cytotoxicity” value is inactive: -6.93%. Consider `O=[N+]([O-])c1cc(-c2nc(-c3ccco3)no2)ccc1NCc1ccccc1`, for which the “activity change, negative = cytotoxicity” value is inactive: 2%. With `Cc1ccc(NC(=O)CC2Nc3cc(C)c(C)cc3NC2=O)c(C)c1` (configuration not stated) the figure was inactive: -15.7%; with `CCOc1ccccc1NC(=O)C1=C(C)Nc2ncnn2C1c1ccc(NC(C)=O)cc1` (configuration not stated), inactive: 1.34%; with `Cc1ccc(Cc2nc3ccccc3nc2SCC(=O)N2CCN(c3ccccc3)CC2)cc1`, inactive: -6.62%.
